The source gives no read counts; variants with many changes may rest on few reads.

B1: LINE1-mini (parent)
chain: GGCAGAGCUCAACACAGCGUGGCAAAGUGGCUGUGGCUAGACUGCC

Variants of B1 are the subject of the series. As to the kind of experiment: self-cleavage, relative activity (ratio to wild type); higher = more cleavage; in vitro, sequencing; the parent is a self-cleaving ribozyme.
Take G1U C13G A39G: the self-cleavage is 0.21. Take G1U C10A A16G G17A C42U U43A: the self-cleavage is 0.01. Next, G1U C15U G27C U28C G29A: 0.09. As for G1U C3A C23U A26C C37U, the self-cleavage turned out to be 0.06. In the case of G1U C8G A24C G33A C42A, the self-cleavage stood at 0.03.

Regarding G1U C37U A39U, the self-cleavage amounted to 0.01. Regarding G1U G7U A25C, the self-cleavage was 0. Next, G1U C18G G36A U43C: 0.05. Next, G1U C3A G7C G19U A26U: 0.3; G1U G2A G7A C15A C23U A24G: 0.09; G1U G5U U9C A12C: 0.03. Next, G1U C15A C46U: 0.07. For the variant G1U C42G G44C, the self-cleavage came out at 0.02. For the variant G1U C15G A26U, the self-cleavage is 0.02. Next, G1U G2A C23A A24U G36U A41G: 0.01; G1U C10U C46A: 0.23. Next, G1U C3G G21U: 0.07; G1U C10A G17U: 0.02; G1U G5C A11C A12G A25U C31G C46U: 0.02. Consider G1U C10A U34C G44A, for which the self-cleavage came to 0.01. Turning to G1U C8U U32C, the self-cleavage was determined as 0.15. Regarding G1U C3U G5U A11G A14G A25G C42A, the self-cleavage turned out to be 0.01. To G1U C13U G35U C45A belongs 0.02; to G1U G2U C18A C23G A26C, 0.07. Next, G1U C13G C23A C31A: 0.15; G1U C10A G19C U28A: 0.02; G1U G5A A12U C13G G33C G40U: 0.12. As to G1U C3G A24U U34A U38G G40U, the self-cleavage came out at 0.05. To G1U G7U G27U C31A A41C belongs 0.03; to G1U C8A A16U U34G, 0.06; to G1U C8G U9C, 0. To G1U C3A C8G G22A G36U belongs 0.13; to G1U C8G A12U G19C A41C, 0.03; to G1U C8A A11C, 0.01.

Consider G1U C3U C8A G33C, for which the self-cleavage amounted to 0.16. Turning to G1U G2A C10U C23G A25C G30A U32A, the self-cleavage was 0.02.

Consider G1U C10A C31A U34A C46G, for which the self-cleavage was determined as 0.01.

Regarding G1U C23A G35U G36U C46G, the self-cleavage is 0.06. In the case of G1U G7A A41C, the self-cleavage was 0.06. As to G1U G2C C46A, the self-cleavage was determined as 0.04. To G1U G2A C45G belongs 0.27. To G1U C31U U32A belongs 0.06; to G1U C3G G5U U38A, 0.05; to G1U G7U C45G, 0.13. As for G1U G2A A26C C31A, the self-cleavage came out at 0.06. To G1U C15U G36A belongs 0.13; to G1U C18G G19U G33A C37U, 0.02; to G1U G2C C13G U28A G36U, 0.12. Next, G1U C10A G17C G19A: 0.03; G1U C8U U34G: 0.05.

For the variant G1U G2U C15A G29U U43C, the self-cleavage was determined as 0.06.

With G1U C13A C15A G35C, the self-cleavage was 0.27.

On to G1U G5A G7C U9A G21U A39C G40A, for which the self-cleavage is 0.11. To G1U G5A A6G G7C G29A belongs 0.26. To G1U C10U C23U G35U belongs 0.03; to G1U G7A G17A, 0.12. For G1U G2A G5A U9G A11C A12C G40C C42U G44A, the self-cleavage worked out at 0.01. Take G1U C8U A25C U34G: the self-cleavage came out at 0.01.

For the variant G1U G2A A4G A24G G35U, the self-cleavage is 0.17. With G1U C3A G17A G35C, the self-cleavage was found to be 0.27.

Turning to G1U A39U C42A, the self-cleavage is 0.04. Next, G1U G7U A14U: 0.06; G1U C8G C10G C18U: 0.02; G1U C13U A39U: 0.39. Next, G1U A26U G44A C46U: 0.07; G1U C3G A12U A26G: 0.07. Next, G1U C8U C23A U38G G40U: 0.01.

Consider G1U C23A G29C, for which the self-cleavage is 0.08. To G1U C3U C15G belongs 0.03; to G1U C18U G19C, 0.66; to G1U G7A G35U, 0.04. With G1U C13U C15G G17C G19U C23U G35U, the self-cleavage came out at 0.01. To G1U G2U G21U belongs 0.09; to G1U C10A G22A C23G U38C G40C, 0.01. To G1U C23A A26C G35U A39U belongs 0.03. As for G1U C10G G19U, the self-cleavage amounted to 0.02.

As for G1U C23U A41C, the self-cleavage turned out to be 0. Next, G1U G5A U9A C13G G17U A24C: 0.03; G1U C15A A16G U20A: 0.03; G1U G5U U34A: 0. To G1U A39U G40A C42U belongs 0.01; to G1U G2C C13G G40A, 0.02; to G1U C3U C15G G29C A39U C45G C46A, 0.03. Next, G1U G2U U34A: 0.01. Regarding G1U C15A G44U, the self-cleavage is 0.12.

With G1U G5C G19C A41G, the self-cleavage was 0.01. Turning to G1U G2C G27C, the self-cleavage was determined as 0.04. To G1U A26C G27C C37U belongs 0.01; to G1U C8G A12C U20A G36A, 0.01; to G1U G5U G21U U28A, 0.03. Take G1U C3A C8G C23A G29A U32A: the self-cleavage came out at 0.17. To G1U C10A G17U A24U G29A belongs 0.02; to G1U C13A U38G C42U, 0.04; to G1U G5U A26G, 0.08. Next, G1U C13A G22A C37A G44A C45U: 0.08. Next, G1U G2U A6G C31A: 0.01; G1U C3U G22U C23G U28G G30C: 0.18. For G1U G7C C10A A14G, the self-cleavage is 0. Regarding G1U C18G C45G, the self-cleavage turned out to be 0.16. Next, G1U C37A G40A: 0.08; G1U C18G G21U A24U: 0.47.

Consider G1U G7U C37U, for which the self-cleavage worked out at 0.01. For G1U G5C A6C, the self-cleavage was found to be 0.03. To G1U C10A A11C U20C belongs 0.01. To G1U G2U C3A U20C G21C belongs 0.05; to G1U G2C C23G, 0.05; to G1U C18U G21U A25C U43A, 0.01. To G1U C3G A24G C42U belongs 0.34; to G1U C10G C13A U20C G30A G35A, 0.01. On to G1U C8G C10A A26C, for which the self-cleavage is 0.01. To G1U C23U G40U belongs 0.09. Take G1U G7A C18A G21U G30U: the self-cleavage is 0.04. To G1U G5U G17A U43G G44A belongs 0.01. To G1U G5U G7A belongs 0.07; to G1U G5U G27A, 0.1. To G1U C3U G40A C46U belongs 0.09; to G1U C10A A14U U20A, 0; to G1U C18A G21C U38C C42U C46U, 0. G1U C13A G21U G30U: the self-cleavage is 0.02. To G1U G5C U28A belongs 0; to G1U C23A C37A, 0.01. As for G1U C13U A25C, the self-cleavage amounted to 0.02. Next, G1U C23A G29U G44C: 0.18; G1U G7C A11U G36A C42U: 0.02.

On to G1U C13U A24C A26C, for which the self-cleavage came out at 0.02. Next, G1U C13A C15U G17U C37A: 0.07. To G1U G2A A16U A39G belongs 0.03; to G1U C15U U20C A25G G27U G29A G33U G36U U43C, 0.02; to G1U C10A G21U A41G, 0.03. Next, G1U C8G C10A C18U A26C: 0.02. Regarding G1U G7C C18A U20G A25C A26U A39U, the self-cleavage was determined as 0.02. For the variant G1U G2A A11U A12C C31G, the self-cleavage came out at 0.

Regarding G1U C15U G29U, the self-cleavage came to 0.5.

On to G1U C23U G30U U34G, for which the self-cleavage is 0.01.

Consider G1U C18A C37A, for which the self-cleavage turned out to be 0.02. Next, G1U C10G A11U A12C U20A A25G: 0.01; G1U C23A G35A: 0.07; G1U C15A U20C G21C: 0.02. Consider G1U G7A U38G, for which the self-cleavage turned out to be 0.01. To G1U G2C C3A U9A A39C belongs 0.39. To G1U C15U C45A belongs 0.09. For the variant G1U C3A A12U U28C U38A A39C G40C, the self-cleavage worked out at 0.09.

With G1U G2A A26C C37U C46G, the self-cleavage was 0.01. Next, G1U G2C C10G U32G: 0.01.

G1U G5C A12G G33A G35U: the self-cleavage was determined as 0.08. Next, G1U C13U A25G G30A G40A: 0.06; G1U C3U C8G C10G C37G C45A: 0.02. Next, G1U G2U A25U: 0.1; G1U G7U C46A: 0.

G1U G2A G27A U34A G36U: the self-cleavage was determined as 0.71.

Consider G1U C10U A16G G21C G35A A39U, for which the self-cleavage is 0.02.

For G1U G7U C10A G21A G29U G33A, the self-cleavage was 0.03. G1U A26U U32G U38A C42G: the self-cleavage was found to be 0.05. To G1U G5U G36A belongs 0.13; to G1U C15A C42G, 0.07; to G1U C8U C13G A16U G29U, 0.05. To G1U C18A A26C G33A belongs 0; to G1U G17A A26C A39U, 0.01. To G1U G5U G21A G27U belongs 0.08; to G1U C3G A6U C8U A16C G21C C46G, 0.06; to G1U C15U U28A, 0.05.

As for G1U C3U G5U A24G, the self-cleavage is 0.18.

Take G1U C15A U20A A24G A26G: the self-cleavage was 0.13.

For the variant G1U G5U C15A G29U U43A, the self-cleavage was found to be 0.07. To G1U C23A G27U G30A C37U G40A belongs 0.13. Take G1U C23G A24G: the self-cleavage came out at 0.35. Next, G1U G2A U9G C10U G17C G21U: 0.08.

The values are drawn from the RNAGym collection of RNA variant scans (doi:10.7554/elife.90254).
